# About 14,000 (4.5%) of roughly 310,000 compounds showed an effect of 50% or more. The effect is printed as a negative number. The list shows a part of the results.
# Molecular target: human ether-à-go-go-related gene (hERG) potassium channel (human, UniProt Q12809)
# Test: primary screen, population patch clamp on CHO cells stably expressing hERG
# 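Note: peak tail current of the secondary pulse compared with the same well before compound.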
# Sequence of human ether-à-go-go-related gene (hERG) potassium channel (Q12809 whole entry, looked up): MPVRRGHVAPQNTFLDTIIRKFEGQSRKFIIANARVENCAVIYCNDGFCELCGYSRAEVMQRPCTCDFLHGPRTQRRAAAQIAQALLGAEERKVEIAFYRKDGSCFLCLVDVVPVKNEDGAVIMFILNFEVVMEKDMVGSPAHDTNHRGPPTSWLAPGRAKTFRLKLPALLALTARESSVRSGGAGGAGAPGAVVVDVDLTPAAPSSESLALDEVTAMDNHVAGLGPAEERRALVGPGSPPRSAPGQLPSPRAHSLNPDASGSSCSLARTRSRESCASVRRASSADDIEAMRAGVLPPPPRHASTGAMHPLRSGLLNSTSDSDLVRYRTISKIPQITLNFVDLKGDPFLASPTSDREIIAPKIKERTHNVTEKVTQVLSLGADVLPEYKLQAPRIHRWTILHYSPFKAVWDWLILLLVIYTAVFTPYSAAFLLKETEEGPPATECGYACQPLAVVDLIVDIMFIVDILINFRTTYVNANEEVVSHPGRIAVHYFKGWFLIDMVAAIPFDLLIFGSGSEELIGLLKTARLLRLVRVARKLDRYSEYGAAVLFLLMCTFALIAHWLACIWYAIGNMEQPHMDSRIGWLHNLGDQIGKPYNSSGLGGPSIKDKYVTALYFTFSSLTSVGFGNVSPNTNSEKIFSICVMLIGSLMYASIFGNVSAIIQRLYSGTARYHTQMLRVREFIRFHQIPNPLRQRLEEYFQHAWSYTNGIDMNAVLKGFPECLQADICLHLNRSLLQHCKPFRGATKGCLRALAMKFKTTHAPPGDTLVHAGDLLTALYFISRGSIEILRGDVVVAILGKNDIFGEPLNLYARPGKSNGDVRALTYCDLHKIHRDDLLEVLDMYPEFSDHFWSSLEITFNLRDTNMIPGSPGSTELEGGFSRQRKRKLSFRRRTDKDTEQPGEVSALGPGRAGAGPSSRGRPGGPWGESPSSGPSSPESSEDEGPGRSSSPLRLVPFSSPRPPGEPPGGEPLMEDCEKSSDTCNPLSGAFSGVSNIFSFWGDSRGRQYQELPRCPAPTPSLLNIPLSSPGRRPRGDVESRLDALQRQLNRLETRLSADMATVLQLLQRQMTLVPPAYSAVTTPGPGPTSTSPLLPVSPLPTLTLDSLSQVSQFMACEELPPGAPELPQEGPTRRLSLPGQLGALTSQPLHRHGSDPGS
row,SMILES,"hERG current change (%, negative = inhibition) at 10uM [%]"
1,NS(=O)(=O)c1ccc2c(c1)C(=NO)c1cc(S(N)(=O)=O)ccc1-2,7.26
2,COc1cc(NC(=S)NC(=O)c2ccco2)ccc1NC(=O)C(C)C,1.81
3,Cc1ccc(C(=O)OCC(=O)NC2CCCC2)cc1C,7.5
4,Cn1c(SCc2cccc(Cl)c2)nc(C(F)(F)F)cc1=O,20
5,CC(OC(=O)CC1CC2CCC1C2)C(=O)Nc1cccc(S(=O)(=O)N2CCOCC2)c1 (stereo not drawn),-4.23
6,CCC1CCCCN1CCCNC(=O)Cn1c(=O)c2cccn2c2ccccc21 (stereo not drawn),-4.16
7,c1ccc(-n2c(-c3ccco3)nnc2N2CCOCC2)cc1,13.9
8,COc1ccc(S(=O)(=O)N2CCCCC2)cc1NC(=O)c1cc([N+](=O)[O-])ccc1N1CCOCC1,-30.4
9,CCOC(=O)c1c(C)[nH]c(C(=O)OCC(=O)NCc2ccc(F)cc2)c1C,7.17
10,C/C(=N\NC(=O)c1cc(C)oc1C)c1ccc2c(c1)OCO2,-11.9
11,C/C(CC(=O)Nc1cccc2c1CCCC2)=N\NC(=O)c1ccccc1N,-5.32
12,CCCCNC(=O)COc1ccccc1C(=O)c1cc(C#N)c(=O)n(CCOC)c1,-22.4
13,O=C(CC(c1ccccc1)(c1ccccc1)c1ccccc1)N[C@@H](Cc1ccccc1)C(=O)O,13.3
14,O=c1c2c(nc3nc(NCc4cccc(Cl)c4)[nH]n13)CCC2,1.8
15,C=CCNC(=S)NC1CC(C)(C)NC(C)(C)C1,10.3
16,CC(=O)Nc1ccc(S(=O)(=O)N2CCc3cc4c(cc3C2C)OCCCO4)cc1 (stereo not drawn),-5.91
17,NC(=O)c1ccc2nc(-c3ccccc3)c(-c3ccccc3)nc2c1,2.96
18,C=CCn1c(SCC(=O)NC(=O)NCCC)nnc1C1CCCCC1,8.69
19,CCN1CCN(C(=O)c2cc3c(OC)c(OC)c(OC)cc3[nH]2)CC1,34.6
20,COc1cccc(OCc2nnc3n2N=C(c2ccccc2)C(CC(=O)O)S3)c1 (stereo not drawn),16.7
21,Cc1cccc(-n2ncc3c(NCc4ccccn4)ncnc32)c1,-8.88
22,COc1ccc(C(=O)COC(=O)C(C(C)C)N2C(=O)C3C4C=CC(C4)C3C2=O)cc1 (stereo not drawn),-7.3

row,SMILES,"hERG current change (%, negative = inhibition) at 10uM [%]"
1,O=C(COc1cccc(Cl)c1)Nc1ccc2c(c1)CCC2,-3.73
2,Cc1cc(C)c(S(=O)(=O)N(C2=NCCS2)S(=O)(=O)c2c(C)cc(C)cc2C)c(C)c1,1.88
3,O=C(c1cc2cc(Cl)ccc2oc1=O)N1CCCCCCC1,16.6
4,O=C(O)CCc1ccc(S(=O)(=O)Nc2ccc(OCc3ccccc3)cc2)cc1,7.19
5,Cc1cc(OCC(=O)Nn2cnnc2)ccc1Br,1.74
6,O=C1COc2cc(S(=O)(=O)CCC(=O)N3CCCCC3)c(Cl)cc2N1,-34.9
7,N#Cc1ccc(C(=O)OCC(=O)N2CCOCC2)cc1,14.3
8,CC(CCc1ccccc1)NC(=O)CCNS(=O)(=O)c1ccccc1C(F)(F)F (stereo not drawn),-12.4
9,FC(F)(F)c1nnc2c(Sc3ccccc3)nc3ccccc3n12,4.21
10,O=C(CN1CCN(c2ccccc2F)CC1)c1c[nH]c2ccccc12,6.29
11,O=C1c2ccccc2C(=O)N1CN(C(=O)COc1ccccc1)c1ccc(F)cc1,-9.38
12,COC(=O)c1sccc1NS(=O)(=O)c1ccc(OC)cc1,-15.1
13,C1=CN2CCC1C(c1ccccc1)C2.Cl (stereo not drawn),-0.894
14,Cc1cccc(CCN(C(=O)c2csnn2)C(C(=O)NC2CCCC2)c2ccco2)c1 (stereo not drawn),-37.1
15,O=C(CSc1nnc(C2CC2)n1Cc1ccco1)NCC(F)(F)F,13.6
16,CCC(COC(=O)Nc1ccccc1)NC(=O)OC(C)C (stereo not drawn),9.06
17,CCCCCc1cc(=O)oc2c(C(CCN3CCN(c4ccccc4)CC3)c3ccc(N(C)C)cc3)c(OC)cc(OC)c12 (stereo not drawn),5.51
18,O=C(c1cc(COc2ccc(F)cc2F)on1)N1CCN(C(=O)c2ccco2)CC1,-57.3
19,C=C1CCN([C@@H](CC(C)C)C(=O)NCc2ccc(Cl)cc2)S(=O)(=O)c2ccccc21,25.3
20,Cc1cc2cc(C(=O)N3CCc4c([nH]c5ccccc45)C3c3ccccn3)ccc2o1 (stereo not drawn),9.41
21,C/C(=N\Nc1cc(C(F)(F)F)ccc1Cl)c1ccccc1O,25.3
22,COc1ccc(C#Cc2ccc3c(c2)c(=O)c2ccccc2n3C)cc1,15.2

row,SMILES,"hERG current change (%, negative = inhibition) at 10uM [%]"
1,CCC(=O)OCc1c(C(F)(F)F)nn(C)c1Sc1ccc(Cl)cc1,-4.76
2,Cc1ccc(S(=O)(=O)CC(=O)Nc2cccc(C)n2)cc1,6.48
3,COc1ccc(OCCNS(=O)(=O)Cc2ccccc2)cc1,0.161
4,CCNC(=O)NC(=O)C(C)OC(=O)CCCc1nc2ccccc2s1 (stereo not drawn),10.8
5,Cc1ccc(C(C)C)cc1OCCN1CCCC1,-23.3
6,CC(C)CNC(=O)C(=O)NCCCN1CCOCC1,-61.6
7,COc1ccc(SCc2noc(C(=O)NC(C)C)c2C(=O)O)cc1,3
8,COc1ccc2c(c1OC)C(=O)OC2Nc1nc(-c2cc3ccccc3oc2=O)cs1 (stereo not drawn),-8.35
9,Cc1cccc(C2Nc3ccccc3C(=O)N2c2ccc(F)cc2)n1 (stereo not drawn),-12.9
10,O=C(c1ccc(OC2CCN(Cc3cccc(OCCO)c3)CC2)cc1)N1CCCC1,-2.15
11,CCOC(=O)c1ccc(-c2c(-c3ccccc3OC)sc3cc4c(cc23)OCO4)cc1F,12.5
12,CCOc1ccc(NC(=O)NCC2CCN(Cc3ccc(F)cc3)CC2)cc1,-76.4
13,Cn1c(CN2CCN(C(=O)c3ccc(F)cc3)CC2)nc2cc([N+](=O)[O-])ccc21,-67.5
14,O=C(N/N=C/c1ccsc1)c1ccccn1,13.5
15,COc1ccc(NS(=O)(=O)c2ccc(NC(=O)C(CCSC)NC(N)=O)cc2)cc1 (stereo not drawn),12.7
16,CCN(CC)CCCNC(=O)c1ccc(C)c(NC(=O)C2=C(C)OCCS2)c1,5.46
17,Cc1ccc(NC(=S)NC(=O)c2ccc(-c3ccc(Cl)cc3)o2)c(O)c1,25.2
18,Cc1ccccc1N/C(SCc1ccc(Cl)cc1)=C(/C#N)C(=O)NCc1ccco1,5.06
19,COc1ccc2[nH]c(=O)c(CN(CCN3CCCC3)C(=O)Nc3ccccc3Cl)cc2c1,-47.6
20,COc1ccc(O)c(C(=O)/C=C/c2cc3ccccc3o2)c1,7.22
21,COc1ccc(CCNc2nc(-c3cccnc3)nc3ccccc23)cc1OC,-1.54
22,COc1ccc(CN2CCC(Oc3ccc(C(=O)N4CCCC4)cc3)CC2)c(F)c1,-51.4

row,SMILES,"hERG current change (%, negative = inhibition) at 10uM [%]"
1,CNC(=O)c1cc2c(s1)-c1ccccc1CC2,8.32
2,Cc1cccc(NC(=O)C(C)Oc2ccccc2C)n1 (stereo not drawn),1.17
3,COc1ccc(/C=N/Nc2cc(C)nc(-n3nc(C)cc3C)n2)c(OC)c1,8.42
4,O=S(=O)(Nc1ccc(N2CCOCC2)cc1)c1c(F)cc(F)cc1Br,7.75
5,COc1cc(OC)c(-c2nnc3n(CCc4ccccc4)c(=O)c4ccccc4n23)cc1OC,-5.63
6,COc1ccc(Cc2n[nH]c(=S)n2N)cc1OC,15.9
7,CCc1ccc(OCC(=O)NC(=S)Nc2ccc(Br)c(C)n2)cc1,14.6
8,O=C(CSc1ccc(-c2cccnc2)nn1)Nc1ccccc1F,-38.6
9,Cc1ccc(S(=O)(=O)N(CC(=O)N=Nc2c(O)[nH]c3ccccc23)c2cccc(C)c2)cc1,-10.7
10,CCC(=O)Nc1ccccc1N1CCN(c2ccc(F)cc2)CC1,19.9
11,CC1CC(C)CN(C2CCN(Cc3cccnc3)CC2)C1.O=C(O)C(=O)O (stereo not drawn),7.94
12,Cc1cc(C(=O)COC(=O)CCc2nc3ccccc3c(=O)[nH]2)c(C)n1CC1CCCO1 (stereo not drawn),30
13,CC(=O)Nc1ccc(Cc2ccc3[nH]c(=O)cc(C)c3c2)cc1,9.5
14,Cc1ccc(S(=O)(=O)N(CC(O)CN2CCCCC2)c2ccccc2)cc1.Cl (stereo not drawn),-67.9
15,O=C(COC(=O)CCOc1ccccc1)NCCc1ccccc1,12
16,Cc1cc(-c2nn(C)c(=O)c3ccccc23)ccc1CNC(=O)NC1CCCCC1,-31.4
17,O=c1nc(NC2CCCC2)ccn1Cc1cccc(Br)c1,-33.9
18,C=CCn1c(CSc2ccccc2[N+](=O)[O-])n[nH]c1=S,22
19,COc1ccc(Cl)cc1NC(=S)NC1CCCC1,11.4
20,CCOC(=O)c1[nH]c(C)c(/C(O)=C2\C(=O)C(=O)N(CCCN3CCOCC3)C2c2cccs2)c1C (stereo not drawn),-2.66
21,CCc1nn(C(C)C(=O)N2CCN(Cc3ccccc3)CC2)c(=O)c2cc3occc3n12 (stereo not drawn),-20.8
